Results from patent US10722558 (dated 2020).

What was measured:
Assay in all cases: SPR
Activin A = molecular target: T1, Activin A (human, UniProt P08476)
T1 chain: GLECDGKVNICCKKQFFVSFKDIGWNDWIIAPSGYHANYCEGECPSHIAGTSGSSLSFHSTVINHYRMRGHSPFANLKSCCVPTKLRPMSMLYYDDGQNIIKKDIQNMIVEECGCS

Activin B = molecular target: T2, Activin B (human, UniProt P09529)
T2 chain: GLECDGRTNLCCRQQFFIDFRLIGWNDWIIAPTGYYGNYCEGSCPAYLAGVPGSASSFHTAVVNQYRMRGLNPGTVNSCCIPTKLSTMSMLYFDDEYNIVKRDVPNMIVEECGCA

GDF11 = molecular target: T3, GDF11 (human, UniProt O95390)
T3 chain: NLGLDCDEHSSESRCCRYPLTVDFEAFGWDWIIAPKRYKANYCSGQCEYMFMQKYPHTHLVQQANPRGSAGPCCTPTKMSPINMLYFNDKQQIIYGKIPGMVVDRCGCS

B1: ActRIIB(L79D 25-131)-hFc (protein)
chain: ETRECIYYNANWELERTNQSGLERCEGEQDKRLHCYASWRNSSGTIELVKKGCWDDDFNCYDRQECVATEENPQVYFCCCEGNFCNERFTHLPEAGGPEVTYEPPPTG[human IgG1 Fc and a few adjoining residues not written out]
B1 was tested, and the Kd (Activin A) was 22900 pM, the Kd (Activin B) was 621 pM and the Kd (GDF11) was 74 pM.

B2: ActRIIB(25-131)-hFc (protein)
chain: ETRECIYYNANWELERTNQSGLERCEGEQDKRLHCYASWRNSSGTIELVKKGCWLDDFNCYDRQECVATEENPQVYFCCCEGNFCNERFTHLPEAGGPEVTYEPPPTG[human IgG1 Fc and a few adjoining residues not written out]
Work on B2 yielded a Kd (Activin A) of 18 pM, a Kd (Activin B) of 12 pM and a Kd (GDF11) of 31 pM.
